Molecular target: hD2 receptor (Homo sapiens, UniProt P14416)
Conditions: [35S]GTPγS, hD2 in CHO cells

Sequence of UniProt P14416 (P14416 whole entry): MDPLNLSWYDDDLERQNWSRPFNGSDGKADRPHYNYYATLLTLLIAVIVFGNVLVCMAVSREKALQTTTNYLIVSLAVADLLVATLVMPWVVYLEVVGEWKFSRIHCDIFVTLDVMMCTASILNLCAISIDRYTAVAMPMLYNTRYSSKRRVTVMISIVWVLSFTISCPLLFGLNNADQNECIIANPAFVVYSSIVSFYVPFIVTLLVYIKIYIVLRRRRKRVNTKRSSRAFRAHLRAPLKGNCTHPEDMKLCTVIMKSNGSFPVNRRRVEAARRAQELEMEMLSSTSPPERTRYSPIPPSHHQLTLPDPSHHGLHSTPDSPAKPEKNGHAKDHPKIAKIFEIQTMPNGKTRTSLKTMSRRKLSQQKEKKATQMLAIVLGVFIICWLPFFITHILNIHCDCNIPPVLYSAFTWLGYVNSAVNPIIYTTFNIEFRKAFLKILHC

| Agonism at D2 compared with dopamine | EC50 (read-out: EC50, D2 receptor) [nM] | SMILES |
| --- | --- | --- |
| full or near-complete agonism |  | CCCN(CCN1CCN(c2ccnc3c(O)cccc23)CC1)C1CCc2ccc(O)cc2C1 (single isomer, unassigned; (+)) [(+)19a, (+)-4-(4-(2-((7-hydroxy-1,2,3,4-tetrahydronaphthalen-2-yl) (propyl)amino)ethyl)piperazin-1-yl)quinolin-8-ol] |
| full or near-complete agonism |  | CCCN(CCN1CCN(c2ccnc3c(O)cccc23)CC1)C1CCc2c(O)cccc2C1 (single isomer, unassigned; (-)) [Compound (−)19b, (−)-4-(4-(2-((5-hydroxy-1,2,3,4-tetrahydronaphthalen-2-yl) (propyl)amino)ethyl)piperazin-1-yl)quinolin-8-ol] |
| full agonist activity | 10.4 | CCCN(CCN1CCN(C(=O)c2ccc3[nH]ccc3c2)CC1)[C@H]1CCc2c(O)cccc2C1 [Compound (−)-45, (S)-(4-{2-[(5-Hydroxy-1,2,3,4-tetrahydro-naphthalen-2-yl)-propyl-amino]-ethyl}-piperazin-1-yl)-(1H-indol-5-yl)-methanone] |

| SMILES | Agonism at D2 compared with dopamine | EC50 (read-out: EC50, D2 receptor) [nM] |
| --- | --- | --- |
| CCCN(CCC)CCc1cccc2c1CC(=O)N2 [ropinirole, reference compound] | full or near-complete agonism |  |
